According to PubChem BioAssay (Tox21):
The inconclusive results got no clear call from the source; some entries with a clear call stand among them for comparison. For part of these data: A potency beside an inconclusive call is a rough fit, not a confirmed value. Calls of active or inactive are those of the source. Unless noted, the call rests on the fitted dose curve; in most records, active means well fitted curve in the direction sought with a large enough effect in the repeat runs; inconclusive means weak or mixed curves; inactive means no such curve, though single readings can be large; an effect the other way counts as inactive or inconclusive.

Columns and labels:
[1] = target: Peroxisome proliferator-activated receptor gamma (Homo sapiens) (UniProt P37231); assay: qHTS assay to identify small molecule agonists of the peroxisome proliferator-activated receptor gamma (PPARg) signaling pathway (AID 743094; active means well fitted activation curve with a large enough effect in the signal ratio in the repeat runs, not every such curve was filed as active; inconclusive means weak or mixed curves, or effect the other way; inactive means no such curve, though single readings can be large or run the other way; the % refers to the signal ratio; further: on the % scale 0 is the no-effect control and ±100 the full control effect); conditions: HEK293H PPARg-UAS-bla, beta-lactamase FRET ratio, 17 h; activation: at 57 µM (top of the series) unless noted
Chain of UniProt P37231 (P37231 whole entry, looked up): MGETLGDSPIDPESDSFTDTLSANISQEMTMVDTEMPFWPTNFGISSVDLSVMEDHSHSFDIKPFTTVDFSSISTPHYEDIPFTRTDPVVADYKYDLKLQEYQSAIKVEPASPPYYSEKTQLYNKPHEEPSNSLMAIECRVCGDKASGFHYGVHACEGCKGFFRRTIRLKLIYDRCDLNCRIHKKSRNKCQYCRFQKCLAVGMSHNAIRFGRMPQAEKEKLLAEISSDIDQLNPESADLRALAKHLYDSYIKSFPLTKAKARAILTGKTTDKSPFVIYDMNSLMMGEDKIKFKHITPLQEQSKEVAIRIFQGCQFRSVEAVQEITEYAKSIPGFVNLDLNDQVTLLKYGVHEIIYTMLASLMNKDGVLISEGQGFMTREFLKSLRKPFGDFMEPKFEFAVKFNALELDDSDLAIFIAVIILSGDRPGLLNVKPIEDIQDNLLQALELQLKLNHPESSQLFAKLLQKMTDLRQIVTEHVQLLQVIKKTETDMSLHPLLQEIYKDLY
Method in brief: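 Compounds dissolved in DMSO were added to PPARg UAS-bla HEK293H cells for 17 h at 37C, and reporter expression was quantified by fluorescence intensity after 1 h with LiveBLAzer B/G FRET substrate.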

[2] = target: Peroxisome proliferator-activated receptor gamma (Homo sapiens) (UniProt P37231); assay: qHTS assay to identify small molecule antagonists of the peroxisome proliferator-activated receptor gamma (PPARg) signaling pathway (AID 743191; calls by dose curve; further: potency means the concentration at half of the fitted maximal effect; nearly all actives have a fitted effect of over 30% in size); conditions: HEK293H PPARg-UAS-bla, beta-lactamase ratio, antagonist, 17 h; ratio activity, negative = inhibition: at 62.6 µM (top of the series) unless noted
Method in brief: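 GeneBLAzer PPARg UAS-bla HEK293H cells carrying a UAS-driven beta-lactamase reporter were plated at 3000 cells/well, preincubated 5 h at 37C, then given compound for 17 h at 37C; LiveBLAzer B/G FRET substrate was read after 1 h at room temperature.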

[3] = qHTS assay to identify small molecule antagonists of the peroxisome proliferator-activated receptor gamma (PPARg) signaling pathway - cell viability counter screen (AID 743194); conditions: PPARg-bla HEK293H viability, CellTiter-Glo luminescence, 17 h, co-treated with 50 nM rosiglitazone; activity change, negative = cytotoxicity: at 62.6 µM (top of the series) unless noted; further: potency means the concentration at half of the fitted maximal effect; nearly all actives have a fitted effect of over 55% in size
Method in brief: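 PPARg-UAS-bla HEK293H cells were plated, rested 5 h at 37 C, then treated with compounds plus rosiglitazone (50 nM final) for 17 h at 37 C; viability was then read by CellTiter-Glo luminescence after 30 min at room temperature.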

[4] = qHTS assay for small molecule agonists of the antioxidant response element (ARE) signaling pathway (AID 743202; active means well fitted activation curve with a large enough effect in the signal ratio in the repeat runs, not every such curve was filed as active; inconclusive means weak or mixed curves, or effect the other way; inactive means no such curve, though single readings can be large or run the other way; the % refers to the signal ratio; further: potency means the concentration at half of the fitted maximal effect); conditions: HepG2 ARE-bla reporter, beta-lactamase FRET, 16 h; activation: at 73.3 µM (top of the series) unless noted
Method in brief: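 Read-out: LiveBLAzer B/G FRET substrate fluorescence after 2 h at room temperature, following 16 h compound treatment at 37 C of HepG2 cells carrying an ARE-driven beta-lactamase reporter.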

[5] = qHTS assay for small molecule activators of the heat shock response signaling pathway - cell viability counter screen (AID 743209); conditions: HSE-bla HeLa viability, CellTiter-Glo luminescence, 5 h; activity change, negative = cytotoxicity: at 62.6 µM (top of the series) unless noted; further: potency means the concentration at half of the fitted maximal effect; nearly all actives have a fitted effect of over 50% in size
Method in brief: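 Readout: CellTiter-Glo luminescence, 30 min at room temperature. System: HSE-bla HeLa cells, 1500/well, plated overnight. Treatment: compounds in DMSO, 5 h at 37 C.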

[6] = qHTS assay for small molecule activators of the heat shock response signaling pathway (AID 743210; active means well fitted activation curve with a large enough effect in the signal ratio in the repeat runs, with a control signal flat, not every such curve was filed as active; inconclusive means weak or mixed curves; the % refers to the signal ratio; further: potency means the concentration at half of the fitted maximal effect); conditions: HeLa HSE-bla reporter, beta-lactamase ratio, 5 h; activation: at 62.6 µM (top of the series)
Method in brief: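 HSE-bla HeLa cells (beta-lactamase reporter under heat shock response elements) were exposed to compounds for 5 h at 37 C, then loaded with LiveBLAzer B/G FRET substrate for 2.5 h at room temperature before fluorescence reading.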

[7] = target: Peroxisome proliferator-activated receptor delta (Homo sapiens) (UniProt Q03181); assay: qHTS assay to identify small molecule agonists of the peroxisome proliferator-activated receptor delta (PPARd) signaling pathway (AID 743212; calls by dose curve; further: potency means the concentration at half of the fitted maximal effect); conditions: HEK293H PPARd-UAS-bla, beta-lactamase FRET ratio, 17 h; activation: at 62.6 µM (top of the series) unless noted
Chain of UniProt Q03181 (Q03181 whole entry, looked up): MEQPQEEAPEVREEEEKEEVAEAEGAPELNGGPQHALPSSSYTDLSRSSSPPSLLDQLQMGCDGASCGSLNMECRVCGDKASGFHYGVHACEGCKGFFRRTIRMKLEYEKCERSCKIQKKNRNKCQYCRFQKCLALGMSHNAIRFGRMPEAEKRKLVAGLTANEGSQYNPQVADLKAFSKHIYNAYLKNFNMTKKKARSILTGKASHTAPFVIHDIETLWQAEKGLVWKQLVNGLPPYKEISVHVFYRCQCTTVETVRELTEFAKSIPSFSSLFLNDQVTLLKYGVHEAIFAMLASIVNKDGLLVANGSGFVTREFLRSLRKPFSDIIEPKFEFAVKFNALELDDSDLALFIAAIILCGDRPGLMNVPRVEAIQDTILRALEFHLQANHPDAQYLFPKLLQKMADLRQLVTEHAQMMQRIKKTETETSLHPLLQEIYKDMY
Method in brief: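 GeneBLAzer PPARd UAS-bla HEK293H cells (beta-lactamase reporter under UAS control), plated and rested 5 h at 37 C, then exposed to compounds in DMSO at 37 C; LiveBLAzer B/G FRET substrate added, 2 h room temperature, fluorescence read.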

[8] = qHTS assay to identify small molecule antagonists of the peroxisome proliferator-activated receptor delta (PPARd) signaling pathway - cell viability counter screen (AID 743213); conditions: PPARd-bla HEK293H viability, CellTiter-Glo luminescence, 17 h; viability change, negative = cytotoxic: at 62 µM (top of the series) unless noted; further: potency means the concentration at half of the fitted maximal effect; nearly all actives have a fitted effect of over 50% in size
Method in brief: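 Cytotoxicity counter screen: CellTiter-Glo luminescence read 30 min after addition, in the same wells as the reporter assay. There, PPARd UAS-bla HEK293H cells (3000/well) were treated 17 h at 37 C with compound and 300 nM L165041.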

[9] = target: Peroxisome proliferator-activated receptor delta (Homo sapiens) (UniProt Q03181); assay: qHTS assay to identify small molecule antagonists of the peroxisome proliferator-activated receptor delta (PPARd) signaling pathway (AID 743215; active means well fitted inhibition curve with a large enough effect in the signal ratio in the repeat runs, not every such curve was filed as active; inconclusive means weak or mixed curves, or effect the other way; inactive means no such curve, though single readings can be large or run the other way; the % refers to the signal ratio;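 further: cells stimulated with agonist L165041 at 300 nM final during compound exposure; potency means the concentration at half of the fitted maximal effect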); conditions: HEK293H PPARd-UAS-bla, beta-lactamase FRET ratio, antagonist, 17 h; ratio activity, negative = inhibition: at 62 µM (top of the series) unless noted
Method in brief: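 HEK293H UAS-bla, PPARd; agonist L165041 300 nM final with cpd in DMSO; 37 C 17 h; FRET substrate, RT 2 h; fluorescence intensity.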

[10] = target: Bile acid receptor (Homo sapiens) (UniProt Q96RI1); assay: qHTS assay to identify small molecule antagonists of the farnesoid-X-receptor (FXR) signaling pathway (AID 743217; active means well fitted inhibition curve with a large enough effect in the signal ratio in the repeat runs, not every such curve was filed as active; inconclusive means weak or mixed curves, or effect the other way; inactive means no such curve, though single readings can be large or run the other way; the % refers to the signal ratio; further: potency means the concentration at half of the fitted maximal effect); conditions: HEK293T FXR-UAS-bla, beta-lactamase ratio, CDCA-stimulated, 16 h; activity change, negative = inhibition: at 62.6 µM (top of the series) unless noted
Chain of UniProt Q96RI1 (Q96RI1 whole entry, looked up): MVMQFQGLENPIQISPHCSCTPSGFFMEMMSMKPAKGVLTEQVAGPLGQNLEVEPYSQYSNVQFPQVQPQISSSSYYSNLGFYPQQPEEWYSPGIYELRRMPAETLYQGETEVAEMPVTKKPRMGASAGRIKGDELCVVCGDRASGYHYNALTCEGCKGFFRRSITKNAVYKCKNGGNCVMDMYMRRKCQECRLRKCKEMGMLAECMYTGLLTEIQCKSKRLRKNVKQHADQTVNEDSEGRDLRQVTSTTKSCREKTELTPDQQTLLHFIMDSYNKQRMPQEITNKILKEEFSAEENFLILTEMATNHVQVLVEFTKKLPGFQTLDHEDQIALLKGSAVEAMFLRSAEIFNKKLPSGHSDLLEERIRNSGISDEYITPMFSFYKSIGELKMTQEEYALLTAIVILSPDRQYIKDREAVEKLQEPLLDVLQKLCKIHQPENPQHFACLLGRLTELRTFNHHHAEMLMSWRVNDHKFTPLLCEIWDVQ
Method in brief: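 GeneBLAzer FXR-UAS-bla HEK 293T, CDCA-stimulated (50 uM final). Compound treatment 16 h, 37 °C. Detection: beta-lactamase cleavage of B/G FRET substrate, fluorescence.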

[11] = qHTS assay to identify small molecule agonists of the farnesoid-X-receptor (FXR) signaling pathway - cell viability counter screen (AID 743218); conditions: FXR-bla HEK293T viability, CellTiter-Glo luminescence, 16 h; viability change, negative = cytotoxic: at 62.6 µM (top of the series) unless noted; further: potency means the concentration at half of the fitted maximal effect; nearly all actives have a fitted effect of over 45% in size
Method in brief: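 Parallel cytotoxicity test: compound-treated (16 h, 37 C) HEK 293T FXR-bla reporter cells were lysed with CellTiter-Glo and luminescence recorded.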

[12] = target: Bile acid receptor (Homo sapiens) (UniProt Q96RI1); assay: qHTS assay to identify small molecule agonists of the farnesoid-X-receptor (FXR) signaling pathway (AID 743220; active means well fitted activation curve with a large enough effect in the signal ratio in the repeat runs, not every such curve was filed as active; inconclusive means weak or mixed curves, or effect the other way; the % refers to the signal ratio; further: potency means the concentration at half of the fitted maximal effect); conditions: HEK293T FXR-UAS-bla, beta-lactamase FRET ratio, 16 h; activation: at 62.6 µM (top of the series) unless noted
Method in brief: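 Beta-lactamase reporter under UAS control in GeneBLAzer FXR HEK 293T cells (5000/well) measured with LiveBLAzer FRET substrate after 2 h at room temperature. Compound exposure lasted 16 h at 37C.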

[13] = qHTS assay to identify small molecule antagonists of the farnesoid-X-receptor (FXR) signaling pathway - cell viability counter screen (AID 743221; active means well fitted cell-killing curve with a large enough effect in the repeat runs, not every such curve was filed as active; inconclusive means weak or mixed curves, or effect the other way; inactive means no such curve, though single readings can be large or run the other way; further: potency means the concentration at half of the fitted maximal effect; nearly all actives have a fitted effect of over 50% in size); conditions: FXR-bla HEK293T viability, CellTiter-Glo luminescence, 16 h; activity change, negative = cytotoxicity: at 62.6 µM (top of the series)
Method in brief: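 Compound effects on cell number were measured as CellTiter-Glo luminescence in HEK 293T cells expressing FXR-UAS-bla, after 16 h at 37 C with 50 uM CDCA (final).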

[14] = target: Vitamin D3 receptor (Homo sapiens) (UniProt P11473); assay: qHTS assay to identify small molecule antagonists of the vitamin D receptor (VDR) signaling pathway (AID 743223; active means well fitted inhibition curve with a large enough effect in the signal ratio in the repeat runs, not every such curve was filed as active; inconclusive means weak or mixed curves, or effect the other way; inactive means no such curve, though single readings can be large or run the other way; the % refers to the signal ratio; further: potency means the concentration at half of the fitted maximal effect; on activity change, negative = inhibition: on the % scale 0 is the no-effect control and ±100 the full control effect); conditions: VDR-UAS-bla HEK293T, beta-lactamase FRET ratio, 16 h; activity change, negative = inhibition: at 61 µM (top of the series) unless noted
Chain of UniProt P11473 (P11473 whole entry, looked up): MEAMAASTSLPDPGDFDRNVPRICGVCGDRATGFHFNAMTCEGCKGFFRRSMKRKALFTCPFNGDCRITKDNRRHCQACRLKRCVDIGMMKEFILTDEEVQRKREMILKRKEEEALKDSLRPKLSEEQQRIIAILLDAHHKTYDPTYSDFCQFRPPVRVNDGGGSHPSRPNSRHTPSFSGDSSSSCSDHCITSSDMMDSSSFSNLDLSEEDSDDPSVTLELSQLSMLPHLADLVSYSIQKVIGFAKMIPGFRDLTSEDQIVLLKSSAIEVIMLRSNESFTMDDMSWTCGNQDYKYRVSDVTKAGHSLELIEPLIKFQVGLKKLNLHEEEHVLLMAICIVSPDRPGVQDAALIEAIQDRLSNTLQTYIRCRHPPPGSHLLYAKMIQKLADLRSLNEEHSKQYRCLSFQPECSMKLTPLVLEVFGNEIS
Method in brief: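 Beta-lactamase activity in VDR-bla cells is measured by FRET substrate fluorescence (2 h, room temperature) after cells spend 16 h at 37C with test compound and 3 nM final 1alpha,25-dihydroxyvitamin D3.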

[15] = qHTS assay to identify small molecule antagonists of the vitamin D receptor (VDR) signaling pathway - cell viability counter screen (AID 743225); conditions: VDR-bla HEK293T viability, CellTiter-Glo luminescence, 16 h; viability change, negative = cytotoxic: at 61 µM (top of the series) unless noted; further: potency means the concentration at half of the fitted maximal effect; nearly all actives have a fitted effect of over 50% in size
Method in brief: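 In this counter screen, VDR-bla HEK 293T cells receive test compound plus 3 nM final calcitriol for 16 h at 37C. Room-temperature steps of 2 h with the beta-lactamase substrate, then 30 min with CellTiter-Glo, precede the luminescence read.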

[16] = qHTS assay for small molecule agonists of the antioxidant response element (ARE) signaling pathway - cell viability counter screen (AID 743203; calls by dose curve; further: potency means the concentration at half of the fitted maximal effect; nearly all actives have a fitted effect of over 55% in size); conditions: ARE-bla HepG2 viability, CellTiter-Glo luminescence, 16 h; viability change, negative = cytotoxic: at 73.3 µM (top of the series)
Method in brief: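 Following 16 hrs of compound treatment at 37C, HepG2 cells with an ARE-controlled beta-lactamase gene were lysed with CellTiter-Glo. Luminescence was read after 30 min at room temperature.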

[17] = target: Vitamin D3 receptor (Homo sapiens) (UniProt P11473); assay: qHTS assay to identify small molecule agonists of the vitamin D receptor (VDR) signaling pathway (AID 743222; calls by dose curve; further: potency means the concentration at half of the fitted maximal effect); conditions: HEK293T VDR-UAS-bla, beta-lactamase FRET ratio, 16 h; activation: at 63.5 µM (top of the series) unless noted
Method in brief: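 In VDR-bla cells, compound-induced beta-lactamase expression is quantified by FRET substrate fluorescence. Treatment lasts 16 h at 37C; substrate develops 2 h at room temperature.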
Tags describe the fitted curve by direction and shape or compound fluorescence and quenching.

Row | Compound | activation [1] | Potency [2] | Potency [3] | Potency [4] | Potency [5] | Potency [6] | Potency [7] | Potency [8] | Potency [9] | Potency [10] | Potency [11] | Potency [12] | Potency [13] | Potency [14] | Potency [15] | Potency [16] | Potency [17] | activity change, negative = inhibition [14]
1 | CC(C)(C)CC(C)(C)c1ccc(O)c(Cc2ccc(Cl)cc2Cl)c1 | inconclusive: 13.2% | inconclusive: 33.5 µM [cytotoxic] | inconclusive: 33.5 µM [cytotoxic, single point] | inconclusive: 13.3 µM | active: 23.7 µM | inconclusive: 22.8 µM | inconclusive: 33.5 µM [single point] | active: 26.6 µM | inconclusive: 26.6 µM [cytotoxic, partial curve] | inconclusive: 33.5 µM [cytotoxic, single point] | inconclusive: 33.5 µM [cytotoxic, single point] | inconclusive: 26.6 µM [falling, partial curve] | active: 33.5 µM | inconclusive: 10.7 µM | active: 15.1 µM | – | – | –
2 | CCOc1ccc([N+](=O)[O-])cc1 | inconclusive: -12.6% [at 78.9 µM] | inconclusive: 55.8 µM [inhibitor, single point] | inconclusive: 62.6 µM [cytotoxic, single point] | inconclusive: 62 µM | active: 44.3 µM | inconclusive: 55.8 µM | – | active: 44.3 µM | – | inconclusive: 55.8 µM | inconclusive: 62.6 µM [cytotoxic] | inconclusive: 62.6 µM [falling, single point] | inconclusive: 55.8 µM | – | active: 22.2 µM | inconclusive: 69.6 µM [cytotoxic, single point] | inconclusive: 55.8 µM [activator, single point] | inconclusive: -33.7% [inhibitor] [at 78.8 µM]
